# The list shows a part of the results.
# Columns and labels:
# Assay in all cases: glycan array binding signal (z-score within array); higher = stronger binding
# Conditions in all cases: glycan notation: IUPAC condensed, linker removed
# [1] = target: Fuc(a1-2)Gal6S(b1-3)GlcNAc
# How it was run: (§1)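 Columns mapping to the same glycan were averaged after glycan names were converted to IUPAC-condensed notation. The data come from 3228 arrays in the Consortium for Functional Glycomics database, limited to those with an available protein sequence. Binding is reported as a within-array Z-score averaged across arrays of one protein sequence and across linkers.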
# [2] = target: Fuc(a1-2)Gal6S(b1-3)GlcNAc6S
# How it was run: as §1
# [3] = target: Fuc(a1-2)Gal6S(b1-4)Glc
# How it was run: as §1
# [4] = target: Fuc(a1-2)Gal6S(b1-4)Glc6S
# How it was run: as §1
# [5] = target: Fuc(a1-2)[Gal(a1-3)]Gal
# How it was run: as §1
# [6] = target: Fuc(a1-2)[Gal(a1-3)]Gal(b1-3)GalNAc
# How it was run: as §1
# [7] = target: Fuc(a1-2)[Gal(a1-3)]Gal(b1-3)GalNAc(b1-3)Gal(a1-4)Gal(b1-4)Glc
# How it was run: as §1
# [8] = target: Fuc(a1-2)[Gal(a1-3)]Gal(b1-3)GlcNAc
# How it was run: as §1
# [9] = target: Fuc(a1-2)[Gal(a1-3)]Gal(b1-3)GlcNAc(b1-2)Man(a1-3)[Fuc(a1-2)[Gal(a1-3)]Gal(b1-3)GlcNAc(b1-2)Man(a1-6)]Man(b1-4)GlcNAc(b1-4)GlcNAc
# How it was run: as §1
# [10] = target: Fuc(a1-2)[Gal(a1-3)]Gal(b1-3)GlcNAc(b1-2)Man(a1-3)[Fuc(a1-2)[Gal(a1-3)]Gal(b1-3)GlcNAc(b1-2)Man(a1-6)]Man(b1-4)GlcNAc(b1-4)[Fuc(a1-6)]GlcNAc
# How it was run: as §1
# [11] = target: Fuc(a1-2)[Gal(a1-3)]Gal(b1-3)GlcNAc(b1-3)GalNAc
# How it was run: as §1
# [12] = target: Fuc(a1-2)[Gal(a1-3)]Gal(b1-3)GlcNAc(b1-6)GalNAc
# How it was run: as §1
# [13] = target: Fuc(a1-2)[Gal(a1-3)]Gal(b1-4)Glc
# How it was run: as §1
# [14] = target: Fuc(a1-2)[Gal(a1-3)]Gal(b1-4)GlcNAc
# How it was run: as §1
# [15] = target: Fuc(a1-2)[Gal(a1-3)]Gal(b1-4)GlcNAc(b1-2)Man
# How it was run: as §1
# [16] = target: Fuc(a1-2)[Gal(a1-3)]Gal(b1-4)GlcNAc(b1-2)Man(a1-3)[Fuc(a1-2)[Gal(a1-3)]Gal(b1-4)GlcNAc(b1-2)Man(a1-6)]Man(b1-4)GlcNAc(b1-4)GlcNAc
# How it was run: as §1
# [17] = target: Fuc(a1-2)[Gal(a1-3)]Gal(b1-4)GlcNAc(b1-2)Man(a1-3)[Fuc(a1-2)[Gal(a1-3)]Gal(b1-4)GlcNAc(b1-2)Man(a1-6)]Man(b1-4)GlcNAc(b1-4)[Fuc(a1-6)]GlcNAc
# How it was run: as §1
# [18] = target: Fuc(a1-2)[Gal(a1-3)]Gal(b1-4)GlcNAc(b1-3)GalNAc
# How it was run: as §1
# [19] = target: Fuc(a1-2)[Gal(a1-3)]Gal(b1-4)GlcNAc(b1-3)[Fuc(a1-2)[Gal(a1-3)]Gal(b1-4)GlcNAc(b1-6)]GalNAc
# How it was run: as §1
# [20] = target: Fuc(a1-2)[Gal(a1-3)]Gal(b1-4)GlcNAc(b1-6)GalNAc
# How it was run: as §1
# [21] = target: Fuc(a1-2)[Gal(a1-3)]Gal(b1-4)[Fuc(a1-3)]Glc
# How it was run: as §1
# [22] = target: Fuc(a1-2)[Gal(a1-3)]Gal(b1-4)[Fuc(a1-3)]GlcNAc
# How it was run: as §1
# [23] = target: Fuc(a1-2)[Gal(a1-3)]Gal(b1-4)[Fuc(a1-3)]GlcNAc(b1-3)GalNAc
# How it was run: as §1
# [24] = target: Fuc(a1-2)[Gal(a1-4)]Gal(b1-4)GlcNAc
# How it was run: as §1
# [25] = target: Fuc(a1-2)[GalNAc(a1-3)]Gal
# How it was run: as §1
# [26] = target: Fuc(a1-2)[GalNAc(a1-3)]Gal(b1-3)GalNAc(a1-3)[Fuc(a1-2)]Gal(b1-4)GlcNAc
# How it was run: as §1
# [27] = target: Fuc(a1-2)[GalNAc(a1-3)]Gal(b1-3)GalNAc(b1-3)Gal(a1-4)Gal(b1-4)Glc
# How it was run: as §1
# [28] = target: Fuc(a1-2)[GalNAc(a1-3)]Gal(b1-3)GlcNAc
# How it was run: as §1
# [29] = target: Fuc(a1-2)[GalNAc(a1-3)]Gal(b1-3)GlcNAc(b1-2)Man(a1-3)[Fuc(a1-2)[GalNAc(a1-3)]Gal(b1-3)GlcNAc(b1-2)Man(a1-6)]Man(b1-4)GlcNAc(b1-4)GlcNAc
# How it was run: as §1
# [30] = target: Fuc(a1-2)[GalNAc(a1-3)]Gal(b1-3)GlcNAc(b1-2)Man(a1-3)[Fuc(a1-2)[GalNAc(a1-3)]Gal(b1-3)GlcNAc(b1-2)Man(a1-6)]Man(b1-4)GlcNAc(b1-4)[Fuc(a1-6)]GlcNAc
# How it was run: as §1
# [31] = target: Fuc(a1-2)[GalNAc(a1-3)]Gal(b1-3)GlcNAc(b1-3)GalNAc
# How it was run: as §1
# [32] = target: Fuc(a1-2)[GalNAc(a1-3)]Gal(b1-3)GlcNAc(b1-6)GalNAc
# How it was run: as §1
# [33] = target: Fuc(a1-2)[GalNAc(a1-3)]Gal(b1-4)Glc
# How it was run: as §1
# [34] = target: Fuc(a1-2)[GalNAc(a1-3)]Gal(b1-4)GlcNAc
# How it was run: as §1
# [35] = target: Fuc(a1-2)[GalNAc(a1-3)]Gal(b1-4)GlcNAc(b1-2)Man
# How it was run: as §1
# [36] = target: Fuc(a1-2)[GalNAc(a1-3)]Gal(b1-4)GlcNAc(b1-2)Man(a1-3)[Fuc(a1-2)[GalNAc(a1-3)]Gal(b1-4)GlcNAc(b1-2)Man(a1-6)]Man(b1-4)GlcNAc(b1-4)GlcNAc
# How it was run: as §1
# [37] = target: Fuc(a1-2)[GalNAc(a1-3)]Gal(b1-4)GlcNAc(b1-2)Man(a1-3)[Fuc(a1-2)[GalNAc(a1-3)]Gal(b1-4)GlcNAc(b1-2)Man(a1-6)]Man(b1-4)GlcNAc(b1-4)[Fuc(a1-6)]GlcNAc
# How it was run: as §1
# [38] = target: Fuc(a1-2)[GalNAc(a1-3)]Gal(b1-4)GlcNAc(b1-3)Gal(b1-4)GlcNAc
# How it was run: as §1
# [39] = target: Fuc(a1-2)[GalNAc(a1-3)]Gal(b1-4)GlcNAc(b1-3)Gal(b1-4)GlcNAc(b1-3)Gal(b1-4)GlcNAc
# How it was run: as §1
# [40] = target: Fuc(a1-2)[GalNAc(a1-3)]Gal(b1-4)GlcNAc(b1-3)GalNAc
# How it was run: as §1
# [41] = target: Fuc(a1-2)[GalNAc(a1-3)]Gal(b1-4)GlcNAc(b1-3)[Fuc(a1-2)[GalNAc(a1-3)]Gal(b1-4)GlcNAc(b1-6)]GalNAc
# How it was run: as §1
# [42] = target: Fuc(a1-2)[GalNAc(a1-3)]Gal(b1-4)GlcNAc(b1-6)GalNAc
# How it was run: as §1
# [43] = target: Fuc(a1-2)[GalNAc(a1-3)]Gal(b1-4)[Fuc(a1-3)]GlcNAc
# How it was run: as §1
# [44] = target: Fuc(a1-2)[GalNAc(a1-3)]Gal(b1-4)[Fuc(a1-3)]GlcNAc(b1-3)GalNAc
# How it was run: as §1
# [45] = target: Fuc(a1-2)[GalNAc(a1-4)]Gal(b1-4)GlcNAc
# How it was run: as §1
binder,measurement,setting,value
DrGal3 (Danio rerio) (protein) MDLSDALDAPPQQNNQQAGGPVWPGQPANPVWPGQPANPTWPGQPNQPAWPGQPNQQWPGQPGQPTAPGWPGPAPQTGPYGAPGQAPQVLTVPLDFPLQNGAYNKMLITINGEVKPNAKQFTVNLRRGNDIAFHINPRFSEGGKPVIVRNSMIGNNWGREERELPSFPFVPGKPFEMKILITDTEYKVAVNKSHLLEFKHRVFELNQITGLSIYNDVTLSTVNVETLQ,glycan array binding signal (z-score),[1],-0.286
same,glycan array binding signal (z-score),[2],-0.055
same,glycan array binding signal (z-score),[3],-0.275
same,glycan array binding signal (z-score),[4],-0.211
same,glycan array binding signal (z-score),[5],-0.159
same,glycan array binding signal (z-score),[6],-0.226
same,glycan array binding signal (z-score),[7],0.361
same,glycan array binding signal (z-score),[8],-0.084
same,glycan array binding signal (z-score),[9],-0.153
same,glycan array binding signal (z-score),[10],-0.174
same,glycan array binding signal (z-score),[11],-0.14
same,glycan array binding signal (z-score),[12],-0.184
same,glycan array binding signal (z-score),[13],-0.085
same,glycan array binding signal (z-score),[14],0.416
same,glycan array binding signal (z-score),[15],0.262
same,glycan array binding signal (z-score),[16],0.846
same,glycan array binding signal (z-score),[17],0.097
same,glycan array binding signal (z-score),[18],-0.177
same,glycan array binding signal (z-score),[19],0.027
same,glycan array binding signal (z-score),[20],-0.268
same,glycan array binding signal (z-score),[21],-0.291
same,glycan array binding signal (z-score),[22],-0.244
same,glycan array binding signal (z-score),[23],-0.244
same,glycan array binding signal (z-score),[24],-0.087
same,glycan array binding signal (z-score),[25],-0.254
same,glycan array binding signal (z-score),[26],-0.173
same,glycan array binding signal (z-score),[27],-0.209
same,glycan array binding signal (z-score),[28],-0.212
same,glycan array binding signal (z-score),[29],-0.237
same,glycan array binding signal (z-score),[30],-0.287
same,glycan array binding signal (z-score),[31],-0.212
same,glycan array binding signal (z-score),[32],-0.246
same,glycan array binding signal (z-score),[33],-0.255
same,glycan array binding signal (z-score),[34],-0.18
same,glycan array binding signal (z-score),[35],-0.006
same,glycan array binding signal (z-score),[36],-0.229
same,glycan array binding signal (z-score),[37],-0.235
same,glycan array binding signal (z-score),[38],0.449
same,glycan array binding signal (z-score),[39],1.08
same,glycan array binding signal (z-score),[40],-0.249
same,glycan array binding signal (z-score),[41],-0.18
same,glycan array binding signal (z-score),[42],-0.174
same,glycan array binding signal (z-score),[43],-0.206
same,glycan array binding signal (z-score),[44],0.107
same,glycan array binding signal (z-score),[45],-0.233

# Source: the supplement of paper PMC8728848
